Results published in PubChem BioAssay (NCATS).
The list shows a part of the results. These are further read-outs of the screen, such as a control signal, another cell line or another target. No call is given for them. For part of these data: Most of these compounds were active or inconclusive in the main read-out, so they are no random draw. The note in brackets gives the kind of curve behind each potency; many fits are weak.

How the values were obtained:
[1] = qHTS drug screen for cell cycle checkpoint inhibitors in PARPi-resistant BRCA-mutant ovarian cancer cell lines. (AID 1963452); conditions: PEO1/OlaR viability, CellTiter-Glo luminescence, 96 h
Procedure, shortened: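 PEO1, PEO4 and PEO1/OlaR ovarian cancer cells, 600 per well, exposed 96 h at 37C to a dilution series. Viability read by CellTiter-Glo luminescence, normalized to DMSO and empty wells; activity summarized as Z-AUC.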

[2] = qHTS for identification of novel therapeutic agents for treatment of microphthalmiaassociated transcription factor (MiT) renal cell carcinoma (RCC) (AID 1963991); conditions: CellTiter-Glo, 48 h; for z-score: stronger effect = lower value;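 on z-score: curves scaled with 100% = DMSO viability and 0% = empty wells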
Procedure, shortened: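 UOK109/UOK124/UOK145 (TFE3 fusions, three partners); 500 cells/well; MIPE v4.0, 1912 cpds, 11 conc.; 48 h, 37 C; CellTiter-Glo, 15 min RT; lum. Norm.: DMSO 100%, empty 0%.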

[3] = measured here: PEO1 parental viability
[4] = TFE3-RCC UOK109 viability, measured here: UOK109 Z-AUC
[5] = TFE3-RCC viability, measured here: UOK124 Z-AUC
[6] = TFE3-RCC viability, measured here: UOK124 cell viability
[7] = TFE3-RCC viability, measured here: UOK145 Z-AUC
[8] = TFE3-RCC viability, measured here: UOK145 cell viability
Tags describe the fitted curve by direction and shape.

SMILES	AC50 [1, 3]	AC50 ([1]; measured here: PEO4 viability)	z-score [2, 4]	z-score [2, 5]	AC50 [2, 6]	z-score [2, 7]	AC50 [2, 8]
O=C(NCCCNc1nc(Nc2cccc(NC(=O)N3CCCC3)c2)ncc1I)c1cccs1	6.16 µM [falling, partial curve]	6.16 µM [falling, partial curve]	0.0198	-0.931	18.7 µM [falling, partial curve]	-0.409	18.7 µM [falling, partial curve]
COc1cc(C(=O)N2CCC(N3CCN(C)CC3)CC2)ccc1Nc1ncc2c(n1)N(C)c1ccccc1C(=O)N2C	5.49 µM [falling, partial curve]	0.549 µM [falling, full curve, poor fit]	-0.461	-0.685	7.43 µM [falling, partial curve]	-0.55	16.6 µM [falling, partial curve]
CC(C)(O)CC(=O)NCCn1ccc2ncnc(Nc3ccc(Oc4cccc(C(F)(F)F)c4)c(Cl)c3)c21	15.5 µM [falling, partial curve]	15.5 µM [falling, partial curve]	-1.7	-0.337	20.9 µM [falling, partial curve]	-0.0583	3.72 µM [falling, full curve]
CN1CCN(c2ccc3nc(-c4c(N)c5c(F)cccc5[nH]c4=O)[nH]c3c2)CC1	6.92 µM [falling, partial curve]	6.16 µM [falling, partial curve]	-0.717	-0.714	16.6 µM [falling, partial curve]	-0.267	18.7 µM [falling, partial curve]
Cc1cc(Nc2cc(N3CCN(C)CC3)nc(Sc3ccc(NC(=O)C4CC4)cc3)n2)n[nH]1	8.71 µM [falling, partial curve]	0.549 µM [falling, partial curve, poor fit]	0.825	-0.0063	18.7 µM [falling, partial curve]	-0.228	18.7 µM [falling, partial curve]
O=C1CSC(=O)N1C(CCc1ccncc1)COc1ccc(-c2cccc([N+](=O)[O-])c2)cc1 (centres undefined)	2.19 µM [falling, full curve, poor fit]	2.75 µM [falling, full curve, poor fit]	1.19	-0.394	7.43 µM [falling, full curve]	-0.344	33.2 µM [falling, single point]
CC(C)C[C@@H](C(=O)N[C@H](C(=O)OC1CCCC1)c1ccccc1)[C@H](O)C(=O)NO	17.4 µM [falling, partial curve, poor fit]	7.76 µM [falling, partial curve]	-0.107	0.683	16.6 µM [falling, partial curve]	0.033	23.5 µM [falling, partial curve, poor fit]
Cc1ccc(F)c(NC(=O)Nc2ccc(-c3cccc4[nH]nc(N)c34)cc2)c1	13.8 µM [falling, partial curve]	15.5 µM [falling, partial curve]	0.604	0.52	33.2 µM [falling, single point]	0.645	37.2 µM [falling, single point]
CC(C)C[C@H](NC(=O)c1cc2ccccc2s1)C(=O)N1CCN(C(=O)[C@H](CO)NS(=O)(=O)c2ccc(Cl)cc2Cl)CC1	24.5 µM [falling, single point]	13.8 µM [falling, partial curve]	-0.122	0.541	23.5 µM [falling, single point]	0.2	29.6 µM [falling, single point]
CO[C@@H]1C(N(C)C(=O)c2ccccc2)C[C@H]2O[C@]1(C)n1c3ccccc3c3c4c(c5c6ccccc6n2c5c31)C(=O)NC4=O (some centres undefined)	24.5 µM [falling, single point]	13.8 µM [falling, partial curve]	-0.426	-0.76	3.32 µM [falling, full curve]	-0.433	6.62 µM [falling, full curve]
NC(=NCCCCCCN=C(N)N=C(N)Nc1ccc(Cl)cc1)N=C(N)Nc1ccc(Cl)cc1	12.3 µM [falling, partial curve]	7.76 µM [falling, partial curve]	-0.41	0.289	18.7 µM [falling, partial curve]	-0.267	18.7 µM [falling, partial curve]
CCc1cccc(CC)c1NC(=O)N1Cc2[nH]nc(NC(=O)c3ccc(N4CCN(C)CC4)cc3)c2C1	9.77 µM [falling, partial curve]	0.549 µM [falling, full curve]	0.893	-0.11	14.8 µM [falling, partial curve]	0.422	26.4 µM [falling, single point]
